According to PubChem BioAssay AID485344 (National Center for Advancing Translational Sciences (NCATS), 2010):
Hit rate of the full screen: of about 340,000 compounds, about 6,900 (2%) were called active. Rule as the data show it: active = inhibition above about 30%; inactive = below that, where a call was filed. The list shows a part of the results, in another mix than the full data. Where no call is shown, the source filed none.

These molecules were tested against D(2) dopamine receptor (Homo sapiens) (UniProt P14416) (assay: HTS Assay for Allosteric Antagonists of the Human D2 Dopamine Receptor: Primary Screen for Antagonists). Conditions: HEK293 TREx D2 cells, calcium flux, dopamine EC80; at 10 µM; stronger effect = higher value.
Chain of UniProt P14416 (P14416 whole entry, looked up): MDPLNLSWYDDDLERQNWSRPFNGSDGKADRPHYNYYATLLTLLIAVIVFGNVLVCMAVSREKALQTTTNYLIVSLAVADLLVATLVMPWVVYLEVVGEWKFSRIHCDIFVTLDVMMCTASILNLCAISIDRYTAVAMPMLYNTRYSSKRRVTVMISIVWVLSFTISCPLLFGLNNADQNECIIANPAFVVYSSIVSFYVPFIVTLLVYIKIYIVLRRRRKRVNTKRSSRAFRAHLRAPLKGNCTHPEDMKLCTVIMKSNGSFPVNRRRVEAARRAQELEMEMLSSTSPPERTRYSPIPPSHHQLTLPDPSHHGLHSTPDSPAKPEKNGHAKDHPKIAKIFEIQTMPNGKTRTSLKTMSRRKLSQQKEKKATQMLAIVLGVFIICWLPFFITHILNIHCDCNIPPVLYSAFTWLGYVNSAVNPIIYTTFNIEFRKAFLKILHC
How it was run: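 Tetracycline-induced HEK293 TREx cells expressing D2 receptor forced-coupled to calcium signalling, loaded with no-wash calcium dye. Compounds added and calcium flux read 180 s, then dopamine added at EC80 and read a further 180 s.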
Also: 0% is about no effect.

Compound	inhibition
CCc1ccc(NC(=O)c2cnn(-c3c(C)cccc3C)c2C2CCNCC2)cc1	15.3%
CC1(C)C(c2ccccc2)=[N+]([O-])C2(CCCCC2=O)N1O (configuration not stated)	active: 33.4%
COC(=O)c1ccccc1NC(=O)CN1C(=O)COc2ccccc21	8.97%
Cc1ncc(CO)c2c1Oc1nc(-c3ccccc3F)nc(SCC(=O)N3CCCCC3)c1C2	-17.6%
COCc1ccc(-c2c(-c3ccccc3OC)sc3cc4c(cc23)OCO4)cc1	active: 39.9%
COc1ccc(NC(=O)CSc2nc3c(c(=O)[nH]2)CN(Cc2ccccc2)CC3)cc1Cl	11.4%
CCc1nc2ccc(C(=O)NCCCN3CCN(c4ccccc4F)CC3)cc2nc1CC	active: 88.4%
CCS(=O)(=O)c1ncc(Cl)c(C(=O)N(Cc2ccccc2)Cc2ccco2)n1	0.401%
COc1ccccc1-c1noc(-c2ccc(NCCc3ccccc3)c([N+](=O)[O-])c2)n1	-1.74%
CCn1cc(C(=O)NCCc2ccc(OC)c(OC)c2)c(=O)c2cc(S(=O)(=O)N3CCc4ccccc4C3)ccc21	-12.4%
COc1cccc(CNC(=O)CSc2ncc(S(=O)(=O)c3ccc(C)c(Cl)c3)c(=O)[nH]2)c1	13.1%
CC(C)(C)C(=O)OCc1cc(=O)n2nc(C3CCCCC3)sc2n1	-5.98%
COc1ccc(-c2nc(CN3CCC(C(=O)NCCN(CC(C)C)CC(C)C)CC3)c(C)o2)cc1OC	-14.9%
Cc1ccc(C)c(CN2C(=O)c3ccccc3Sc3ccc(C(=O)NC4CCCC4)cc32)c1	-18.6%
Cc1ccc(-n2ncc(C(=O)N3CCc4ccccc4C3)c2C2CCN(C(=O)OC(C)(C)C)CC2)cc1C	0.396%
COc1ccc(NC(=O)c2c(C)oc3ccc(O)c(CN4CCCC(C)C4)c23)cc1Cl (configuration not stated)	7.36%
Cc1ccc(N2CCN(C(=O)CCc3c(C)nc4ncnn4c3C)CC2)c(C)c1	8.53%
Cc1cc(C)c(C#N)c(SCC(=O)Nc2ccccc2C#N)n1	-0.114%
COC(=O)c1c(NC(=O)c2ccc(S(=O)(=O)N3CCCCC3)cc2)sc2c1CCN(C)C2	-1.92%
COc1ccc(CCNC(=O)CCCn2c(=O)c3ccccc3n(CC(=O)Nc3c(C)cc(C)cc3C)c2=O)cc1OC	20.5%
CCc1ccc(NC(=O)CCS(=O)(=O)c2ccc3c(c2)oc(=O)n3C)cc1	-4.18%
CCOC(=O)c1c(-c2ccc(C)cc2)csc1NC(=O)c1ccc(C(C)(C)C)cc1	10.4%
COC(=O)c1ccc(OC)c(Cn2c(=O)n(-c3cccc(Cl)c3)c(=O)c3c2c2cc(C)ccc2n3C)c1	0.168%
Cc1ccc(-n2c(SCc3nc(-c4ccccc4C)no3)nnc2-c2ccncc2)cc1C	17.4%

Compound	inhibition
Cc1ccc(N2CC(c3nnc(Cc4ccc(F)cc4Cl)o3)CC2=O)cc1 (configuration not stated)	11.7%
COC(=O)CNC(c1ccccc1)c1cc(Br)ccc1NC(=O)c1cc(OC)c(OC)c(OC)c1 (configuration not stated)	-7.87%
CC1=C(c2ccc(Cl)cc2)S(=O)(=O)N=C1N1CCN(c2cccc(C)c2)C(C)C1 (configuration not stated)	-11.1%
CNC(=O)c1ccc(NC(=O)c2nsc3ccccc23)cc1	11%
CCOC(=O)c1ccc(NC(=O)Cn2nnc(-c3ccc(C(F)(F)F)cc3)n2)cc1	3.39%
Cc1ccc(-c2csc(=Nc3ccccc3)n2CCCO)cc1	6.73%
CCN1Cc2cccc(C(=O)Nc3ccc(F)cc3)c2C1=O	10.1%
COc1ccc2c(c1)c(N1CCCC1=O)c(C(=O)Nc1ccc(Cl)cc1C)n2C	3.13%
CCOC(=O)c1ccc(OCC2c3cc(OC)c(OC)cc3CCN2C(=O)Cc2ccc(OC)c(OC)c2)cc1 (configuration not stated)	19%
COc1ccc(-c2[nH]c(-c3ccc(F)cc3)nc2SCC(=O)Nc2ccc(OC)c(OC)c2)cc1	7.23%
Fc1ccc(-n2ncc3c(Nc4ccc(Oc5ccc(Cl)cc5)cc4)ncnc32)cc1	12.8%
CC1=C(C(N)=O)C(c2ccc(C(C)C)cc2)n2nc(SCc3ccccc3F)nc2N1 (configuration not stated)	-25.7%
CCn1cc2nc(SCc3cccc(C(F)(F)F)c3)n(CCc3ccccc3)c(=O)c2n1	-0.419%
COc1ccc(F)cc1C(=O)C1CCCN(Cc2ccc(Sc3nncn3C)o2)C1 (configuration not stated)	active: 30.9%
COc1ccc(-c2cc(C)no2)cc1S(=O)(=O)Nc1cccc(C(F)(F)F)c1	14.1%
COc1ccc(CCNC(=O)Cn2c(C)c3cnn(-c4ccccc4)c(=O)c3c2C)cc1OC	10.5%
Cc1cc(-c2nc3ncccc3o2)ccc1NC(=O)COc1ccc(C(C)(C)C)cc1	13.6%
CCOc1ccc(Nc2c(S(=O)(=O)c3ccc(C)cc3)cnc3ccccc23)cc1	-0.954%
Cc1c2cnn(-c3ccccc3)c(=O)c2c(C)n1CC(=O)NCc1ccc(Cl)cc1	-6.49%
CCc1ccc(NC(=O)CSc2nnc(-c3nonc3NC(C)=O)n2-c2ccccc2)cc1	5.67%
COc1ccccc1COC(=O)c1cccc(S(=O)(=O)N2CCCC2)c1	active: 41.7%
Cc1cc2oc(C(=O)N(Cc3ccccc3)C3CCS(=O)(=O)C3)cc(=O)c2cc1C (configuration not stated)	5.58%
CCOc1ccc(S(=O)(=O)n2nc(C)c(S(=O)(=O)N3CCCCCC3)c2C)cc1	-1.57%
